Results: the supplement of paper PMC4604168 (melanoma cell lines)
This is one part of the list. Many values rest on one well or one pass, so single values are uncertain.

Assays:
Test in all cases: cell count relative to DMSO control; melanoma cells; higher = more viable cells
Conditions in all cases: library dose: standard library concentration; 72 h
[1] = tested on: G361
[2] = tested on: IPC-298
[3] = tested on: IST-MEL1
[4] = tested on: LB2518-MEL
[5] = tested on: LOXIMVI
[6] = tested on: MEL-HO
[7] = tested on: MZ2-MEL
[8] = tested on: MeWo
[9] = tested on: RPMI7951
[10] = tested on: RVH-421
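Note: cells treated in 1,536-well plates, then fixed and DAPI-stained, with nuclei counted from automated high-throughput microscope images.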

SMILES | cell count [1] | cell count [2] | cell count [3] | cell count [4] | cell count [5] | cell count [6] | cell count [7] | cell count [8] | cell count [9] | cell count [10]
Clc1ccc(Nc2nnc(Cc3ccncc3)c3ccccc23)cc1 [vatalanib] + COC(=O)c1sccc1S(=O)(=O)Nc1ccc(Nc2ccccc2)cc1OC [GSK0660] (first compound 10 µM, partner dose 5 µM) | 64.8% | 50.4% | 85.8% | 73.2% | 177% | 59.1% | 46.1% | 62% | 92.7% | 85.2%
COCC[n+]1c2c(n(Cc3cnccn3)c1C)C(=O)c1ccccc1C2=O + COc1ccc(-c2ccc3c(N4CCOCC4)nc(N4C[C@@H](C)O[C@@H](C)C4)nc3n2)cc1CO [KU0063794] (first compound 0.002 µM, partner dose 0.1 µM) | 72.6% | 41.5% | 41.5% | 25% | 70.1% | 79.1% | 19% | 62.5% | 43.3% | 95.5%
Cn1c(Nc2ccc(C(F)(F)F)cc2)nc2cc(Oc3ccnc(-c4ncc(C(F)(F)F)[nH]4)c3)ccc21 + Cc1cc([N+](=O)[O-])ccc1NS(=O)(=O)c1cc(Cl)ccc1Cl [FH535] (first compound 0.4 µM, partner dose 5 µM) | 13% | 42% | 50.3% | 33.5% | 126% | 40.5% | 37.3% | 54.9% | 33.7% | 35.3%
COCC[n+]1c2c(n(Cc3cnccn3)c1C)C(=O)c1ccccc1C2=O + C[C@]1(c2nc3c(C(N)=O)cccc3[nH]2)CCCN1 [Veliparib] (first compound 0.002 µM, partner dose 7 µM) | 88.9% | 61% | 40.2% | 33.8% | 41.7% | 91.6% | 24.5% | 70.9% | 45.6% | 76.7%
Nc1cccc2c1CN(C1CCC(=O)NC1=O)C2=O (stereo not given) [lenalidomide] + Oc1nc(-c2ccc(C(F)(F)F)cc2)nc2c1CSCC2 [XAV939] (first compound 5 µM, partner dose 10 µM) | 79.1% | 84.6% | 98.8% | 78.5% | 85.3% | 86.2% | 85.7% | 83.8% | 95.6% | 84.4%
Clc1ccc(Nc2nnc(Cc3ccncc3)c3ccccc23)cc1 [vatalanib] + CC(C)(C)c1cnc(CSc2cnc(NC(=O)C3CCNCC3)s2)o1 [SNS-032] (first compound 10 µM, partner dose 0.05 µM) | 53.3% | 76.9% | 78.5% | 64.7% | 69.2% | 67.7% | 62.3% | 58% | 38.2% | 64.2%
Nc1cccc2c1CN(C1CCC(=O)NC1=O)C2=O (stereo not given) [lenalidomide] + Oc1cc(-c2nc(-c3ccccc3)[nH]c2-c2ccncc2)ccc1Cl [L779450] (first compound 5 µM, partner dose 1 µM) | 62% | 85.1% | 95.8% | 75.4% | 87.8% | 83.3% | 88.4% | 95.2% | 97.6% | 85%
OCc1c[nH]c2ccccc12 [Indole-3-carbinol] + O=C(O)C(=O)Nc1sc2c(c1C(=O)O)CCNC2 [TCS401] (first compound 4 µM, partner dose 8.33333 µM) | 88.2% | 101% | 97.4% | 87.2% | 118% | 94.5% | 91.2% | 132% | 109% | 112%
COCC[n+]1c2c(n(Cc3cnccn3)c1C)C(=O)c1ccccc1C2=O + CC(C)CCN1c2nc(Nc3cc(F)c(O)c(F)c3)ncc2N(C)C(=O)C1C [BID1870] (first compound 0.002 µM, partner dose 1 µM) | 49.6% | 35.4% | 46.7% | 14.5% | 86.3% | 57.5% | 26.7% | 24.4% | 43.2% | 84.6%
Nc1cccc2c1CN(C1CCC(=O)NC1=O)C2=O (stereo not given) [lenalidomide] + C=CCn1c(=O)c2cnc(Nc3ccc(N4CCN(C)CC4)cc3)nc2n1-c1cccc(C(C)(C)O)n1 [MK1775] (first compound 5 µM, partner dose 0.1 µM) | 101% | 105% | 86.6% | 73.3% | 75.7% | 101% | 118% | 74.5% | 71.7% | 85.5%
OCc1c[nH]c2ccccc12 [Indole-3-carbinol] + CC(C)(C)c1cnc(CSc2cnc(NC(=O)C3CCNCC3)s2)o1 [SNS-032] (first compound 4 µM, partner dose 0.05 µM) | 117% | 109% | 95.2% | 85.6% | 71.5% | 103% | 96.5% | 98.4% | 26.1% | 87%
Cn1c(Nc2ccc(C(F)(F)F)cc2)nc2cc(Oc3ccnc(-c4ncc(C(F)(F)F)[nH]4)c3)ccc21 + c1cc(-c2cnn3cc(-c4ccc(OCCN5CCCCC5)cc4)cnc23)ccn1 [Dorsomorphin] (first compound 0.4 µM, partner dose 2 µM) | 41% | 48.5% | 74.5% | 33.7% | 96.1% | 59.8% | 48.4% | 57.1% | 40.9% | 94.9%
